Test results taken from paper PMC4336329 (PLoS ONE, 2015).
Out of some 310,000 compounds screened, about 14,000 (4.5%) showed an effect of 50% or more. Effects have a minus sign here. The list shows a part of the results.

Each compound was assayed against human ether-à-go-go-related gene (hERG) potassium channel (human, UniProt Q12809) (assay: primary screen, population patch clamp on CHO cells stably expressing hERG).
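Further: peak tail current of the secondary pulse compared with the same well before compound.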

Sequence of human ether-à-go-go-related gene (hERG) potassium channel (Q12809 whole entry, looked up): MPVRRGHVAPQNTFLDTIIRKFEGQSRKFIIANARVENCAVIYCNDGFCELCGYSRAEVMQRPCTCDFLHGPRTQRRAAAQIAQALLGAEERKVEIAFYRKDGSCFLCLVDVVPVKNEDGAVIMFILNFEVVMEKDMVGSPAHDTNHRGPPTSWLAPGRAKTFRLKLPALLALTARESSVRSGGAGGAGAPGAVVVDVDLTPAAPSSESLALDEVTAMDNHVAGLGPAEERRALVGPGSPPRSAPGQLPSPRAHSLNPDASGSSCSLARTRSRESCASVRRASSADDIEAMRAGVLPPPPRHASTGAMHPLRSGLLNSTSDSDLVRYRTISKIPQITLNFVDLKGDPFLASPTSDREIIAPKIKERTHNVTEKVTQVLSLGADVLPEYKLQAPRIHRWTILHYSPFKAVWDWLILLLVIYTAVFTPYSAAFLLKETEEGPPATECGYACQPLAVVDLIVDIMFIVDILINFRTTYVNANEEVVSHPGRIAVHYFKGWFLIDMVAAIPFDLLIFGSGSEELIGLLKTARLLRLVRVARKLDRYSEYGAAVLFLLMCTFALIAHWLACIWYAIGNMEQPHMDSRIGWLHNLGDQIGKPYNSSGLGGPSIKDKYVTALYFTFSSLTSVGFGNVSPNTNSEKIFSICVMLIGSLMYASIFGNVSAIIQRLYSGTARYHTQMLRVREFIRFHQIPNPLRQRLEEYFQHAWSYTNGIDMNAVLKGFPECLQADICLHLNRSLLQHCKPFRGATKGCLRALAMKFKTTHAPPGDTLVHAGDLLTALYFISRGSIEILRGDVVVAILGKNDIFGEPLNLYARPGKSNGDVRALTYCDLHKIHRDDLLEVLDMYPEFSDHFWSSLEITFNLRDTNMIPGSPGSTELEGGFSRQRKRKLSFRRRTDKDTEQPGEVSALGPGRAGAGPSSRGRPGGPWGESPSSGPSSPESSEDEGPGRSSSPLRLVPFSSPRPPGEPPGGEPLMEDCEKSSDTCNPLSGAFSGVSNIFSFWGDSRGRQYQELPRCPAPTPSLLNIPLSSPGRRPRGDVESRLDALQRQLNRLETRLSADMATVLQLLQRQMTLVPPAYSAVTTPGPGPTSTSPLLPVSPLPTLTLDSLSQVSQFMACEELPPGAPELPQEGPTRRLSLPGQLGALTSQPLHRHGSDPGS

SMILES | hERG current change (%, negative = inhibition) at 10uM
CCN(CC(=O)Nc1ccc(OC)c(Cl)c1)CC(=O)NC(C)C | 9.17%
COCC(C)NC(=O)c1noc2c1CCc1cc(OC)ccc1-2 (stereo not drawn) | -25.9%
CN1/C(=C\C(=O)C[n+]2cccc(C(N)=O)c2)C(C)(C)c2ccccc21.[Cl-] | 22.4%
COCCNc1ccc(N2C(=O)CCCC2=O)cc1[N+](=O)[O-] | 19%
Cn1c(=O)n(C)c2cc([N+](=O)[O-])c(N3CCN(S(C)(=O)=O)CC3)cc21 | 6.17%
C/C(CC(=O)Nc1cccnc1)=N\NC(=O)c1ccc([N+](=O)[O-])c(Cl)c1 | -21.3%
CCOc1cc(C(=O)Nc2cc(F)ccc2C)ccc1OCC(=O)N1CCOCC1 | -17.8%
Cc1ccc(Oc2ccc(NC(=O)CSc3n[nH]c(N)n3)cc2)cc1 | -1.71%
CN1CCC23c4ccccc4NC1C21CCN(C)C3Nc2ccccc21 | 0.813%
CCOc1ccc(C(=O)NCC(=O)N2CCCCCCC2)cc1 | -9.52%
CCOc1ccc(NC(=O)CN(C2CCCCC2)S(C)(=O)=O)cc1 | -15.6%
COc1ccccc1-c1c(C#N)c(N)nc2c1CCc1ccccc1-2 | 37.4%
COc1ccccc1/C=C/CN1CCCC(CO)(Cc2cccc(Cl)c2)C1 (stereo not drawn) | -69.6%
COc1ccc(C(=O)COC(=O)CCC(=O)Nc2ccc(C(C)=O)cc2)cc1 | 6.24%
COc1ccc(C(=O)NCCc2cnc[nH]2)cc1OC | 17.2%
Clc1ccc(C2=Nn3c(nnc3-c3cccnc3)SC2)s1 | -11.7%
CC(=O)Oc1ccc(/C=C/c2nc3ccccc3c(=O)o2)cc1 | 20.2%
Cn1c(/C(C#N)=C(\O)CN2CCN(Cc3ccccc3)CC2)nc2ccccc21 | -40.1%
CC(=O)C1=C(O)C(=O)N(Cc2cccnc2)C1c1ccc(C(C)C)cc1 (stereo not drawn) | 17.1%
O=C(NCCCN1CCCC1=O)C1CCN(S(=O)(=O)c2cccc(C(F)(F)F)c2)CC1 | 1.22%
COc1ccc(CNC(=O)[C@H](CCSC)NC(=O)N2CCn3c2nc2ccccc23)cc1 | -38.7%
O=C(CCCOc1ccc(Cl)cc1Cl)Nc1ccccc1C(=O)O | 14%

SMILES | hERG current change (%, negative = inhibition) at 10uM
CC1CC(C)CN(C(=O)CCNC(=O)c2ccccc2Cl)C1 (stereo not drawn) | 1.26%
CCc1nnc(NC(=O)CSc2nc3cc(OC)ccc3cc2C)s1 | 3.85%
Cc1ccc2[nH]c(=O)cc(C(=O)OC(C)C)c2c1 | -3.4%
COc1ccc(-c2cc(C(F)(F)F)nc(SCC(N)=O)n2)cc1 | -0.382%
Cc1ccc(NC(=O)C(=O)c2cn(CC(=O)N3CCCCC3)c3ccccc23)cc1 | -6.98%
COC(=O)c1ccc(OC(=O)c2ccc(OC)c(OC)c2)c(OC)c1 | 15.6%
Cc1ccc(C(=O)CN2C(=O)NC3(CCc4ccccc43)C2=O)c(C)c1 (stereo not drawn) | -19.3%
Cc1ccc(-n2ccn(CC(=O)NCCc3ccccc3)c(=O)c2=O)cc1C | 6.32%
O=C1CC(N2CCN(c3cccc(C(F)(F)F)c3)CC2)C(=O)N1c1ccccc1 (stereo not drawn) | 26.4%
CC(=O)Nc1ccc(OCC(O)CN2CCN(c3ccc(C)c(Cl)c3)CC2)cc1 (stereo not drawn) | -27.7%
COc1ccccc1C(=O)Nc1c(C(=O)N(CCN(C)C)Cc2ccco2)oc2ccccc12 | -82.7%
COc1ccc(C(C)=O)cc1CS(=O)(=O)CC(=O)NCCc1c[nH]c2ccccc12 | -10.6%
O=C(O)c1ccc(COc2ccccc2/C=C2\NC(=O)N(Cc3ccc(F)cc3)C2=O)cc1 | 6.56%
CSCC[C@H](N)C(=O)N1CCC(C(=O)N[C@H](C)C(=O)Nc2ccc(C(C)C)cc2)CC1 | 12.3%
COc1cc(/C=C2\SC(=Nc3ccc(O)cc3)NC2=O)cc(OC)c1O | 2.49%
O=C(c1nsc(Cl)c1Cl)N1CCCCC1 | -6.44%
Cc1ccc(C)c(S(=O)(=O)N2CCN(C(=O)c3n[nH]c(=O)c4ccccc34)CC2)c1 | 2.17%
O=C1/C(=C/c2cccs2)Cc2ccccc21 | 17.2%
NS(=O)(=O)c1ccc(CCNC(=O)C(=O)NCC2OCCN2S(=O)(=O)c2ccc(F)cc2)cc1 (stereo not drawn) | 22.3%
COc1ccc(CC(=O)Nc2sc3c(c2C(N)=O)CCCC3)cc1OC | 6.32%
O=C(NC1CC1)C1=C[C@H](c2ccc(C(F)(F)F)cc2)C[C@H](OCc2ccc(CO)cc2)O1 | -42.7%
Cn1c(=O)c2c(SCc3ccccc3)nc(C3CC3)nc2n(C)c1=O | 2.43%

SMILES | hERG current change (%, negative = inhibition) at 10uM
CC1CCC(n2c(=S)[nH]c3ccccc3c2=O)CC1 (stereo not drawn) | 9.43%
COc1ccc(NC(=O)CC2(CC(=O)O)CCCC2)cc1 | 11.3%
CCn1c(C)[n+](CC)c2ccc(C(=O)N(C)c3ccccc3)cc21.[I-] | 37.4%
O=C(CCC(=O)N1CCSc2ccccc21)NCc1cccc(Cl)c1 | -14.6%
CSc1ccccc1Sc1cc(C(=O)O)c2ccccc2n1 | 13.4%
CN(CCOc1ccc(Cl)cc1)C(=O)CN1C(=O)NC2(CCCC2)C1=O | -11.5%
C=CCN(c1ccccc1)S(=O)(=O)c1cccc(C(=O)N2CCN(c3ncccn3)CC2)c1 | -33.9%
CC(C)(C)c1ccc(S(=O)(=O)N2CCN(CC(=O)NC(=O)NC3CCCCC3)CC2)cc1 | -5.19%
NNc1nc2c(Cl)ccc(Cl)c2s1 | 18.6%
COc1ccc(/C=C(/Sc2nnc(-c3ccc(Cl)cc3)o2)C(=O)O)cc1 | 22.1%
Cc1cc([N+](=O)[O-])nn1CC(=O)NCc1ccc(Cl)cc1 | -19.2%
CCOc1ccc(C(=O)NNC(=O)c2cc(S(=O)(=O)N3CCOCC3)ccc2Cl)cc1 | -24.4%
COc1cccc(NC(=O)CNCc2ccccc2)c1.Cl | 26.3%
Cc1ccc(S(=O)(=O)NNC(=O)c2sc3nc(C)cc(C)c3c2-n2cccc2)cc1 | -9.46%
COCc1cc(C)nc(SCC[N+](C)(C)CC(=O)Nc2ccccc2)c1C#N.[Cl-] | 4.03%
CCN1CCN(Cc2oc(CO)cc(=O)c2O)CC1 | -4.6%
O=C(NCc1cccnc1)C1CCN(S(=O)(=O)N2CCC3(CC2)OCCO3)CC1 | -11%
CNc1ncc(C(=O)c2ccccc2)s1 | -1.56%
O=C(CSc1nnc(-c2cccnc2)n1CCN1CCCCC1)Nc1cccc(Cl)c1 | -79.8%
CCc1ccc(C(=O)NCc2cccs2)s1 | -6.35%
CCc1ccc(/C=C2\SC(=S)N(CCC(=O)NCCCN3CCOCC3)C2=O)cc1 | -39.3%
O=C(CC(=O)Nc1ccc(F)cc1)Nc1ccc(F)cc1 | 16.8%

SMILES | hERG current change (%, negative = inhibition) at 10uM
O=C(NCCCN1CCCC1=O)c1cc2nc(-c3ccco3)cc(C(F)(F)F)n2n1 | 1.05%
O=C(OCc1ccccc1)c1cccnc1Cl | -22.6%
Cc1cccc(OCCn2c(=O)oc3ccc(C)cc32)c1 | 5.77%
CCc1ccccc1NC(=O)CCNS(=O)(=O)c1cc(Br)cnc1N | -2.58%
O=c1cc(N2CCN(c3ccccc3)CC2)[nH]c(=O)n1Cc1ccc(F)cc1 | -25.9%
CCOC(=O)c1sc(=NC(=O)c2ccc(S(=O)(=O)N3CC(C)OC(C)C3)cc2)n(C)c1C (stereo not drawn) | 0.13%
O=C(CCNC(=O)N1CCn2c1nc1ccccc12)NCc1ccccc1 | 2.88%
Cc1ccc(N=Nc2c(N)nn(-c3ccccc3)c2N)cc1 | 0.257%
COCCn1cc(C(=O)NCCCN2CCC(C)CC2)c2c3ccccc3n(C)c2c1=O | -9.38%
COc1ccc(CCNC(=O)COC(=O)c2ccc(N3CCCC3=O)cc2)cc1 | 17.2%
O=C(Cn1c(=O)oc2ccccc21)Nc1ccc2c(c1)OCCO2 | -26.9%
O=S(=O)(NCCc1ccc(F)cc1)c1cccc2cccnc12 | -0.538%
O=C(O)CNC(=O)C12CC3CC(CC(Cl)(C3)C1)C2 | 0.47%
CC(=O)N1CCOc2ccc(S(=O)(=O)N3CCCC(C)C3)cc21 (stereo not drawn) | 3.44%
O=C(CSc1nnc(C2CC2)n1C1CC1)c1ccc(F)c(F)c1 | -18.9%
Nc1nonc1C(=O)N1CCCC1 | 10.1%
CCn1c(SCC(=O)c2c(N)n(C)c(=O)n(C)c2=O)nnc1-c1ccccc1 | 12.2%
O=C(NNS(=O)(=O)c1ccccc1)c1cnn(-c2ccc(Cl)cc2)c1C(F)(F)F | -6.3%
Cc1cc(C)c(C(=O)COC(=O)Cn2cnnn2)cc1C | -3.33%
COC(CN(C)C(=O)C1CCC(CNS(=O)(=O)c2ccc(C)cc2)CC1)OC (stereo not drawn) | 4.13%
CC1CN(c2cc(=O)n(-c3ccccc3)c(=O)[nH]2)CC(C)O1 (stereo not drawn) | 4.91%
